The other results are listed elsewhere or left out. At the low end of the ranking the order means little. Measured with an extract: partners may take part in the binding.

The assay concerns the target T1, HNF4alpha2 (COS-7 nuclear extract) (UniProt P41235).
T1 sequence: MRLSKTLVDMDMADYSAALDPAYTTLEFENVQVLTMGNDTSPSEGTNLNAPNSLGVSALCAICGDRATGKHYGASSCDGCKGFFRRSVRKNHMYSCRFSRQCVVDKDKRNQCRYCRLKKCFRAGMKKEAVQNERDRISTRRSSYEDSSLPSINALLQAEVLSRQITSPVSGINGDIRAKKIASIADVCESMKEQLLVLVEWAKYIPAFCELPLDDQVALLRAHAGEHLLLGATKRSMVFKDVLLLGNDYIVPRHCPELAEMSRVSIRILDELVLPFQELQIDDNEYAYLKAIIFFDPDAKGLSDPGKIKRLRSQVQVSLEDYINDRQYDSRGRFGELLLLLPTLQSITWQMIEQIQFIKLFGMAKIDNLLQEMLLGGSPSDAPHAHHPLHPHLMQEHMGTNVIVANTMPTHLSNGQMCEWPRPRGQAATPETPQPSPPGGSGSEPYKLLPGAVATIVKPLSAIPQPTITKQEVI
The experiment in a line: protein-binding microarray. As to conditions: COS-7 nuclear extract on double-stranded Agilent 4x180k PBM; binding buffer, salt, pH and temperature not given; high values mean tight binding; double strand, one strand shown; sequences stand for … in …GCCTAGGGAGATTAGAGTATCGGTCGA
For the sequence TTTCTTCTCTGTAGGTAAACAGTGACTCAT, the binding signal (log2 normalized intensity) was found to be 2.01.
GATAAGAAGACTCCAGGGGACTGCCTCTTC: the binding signal (log2 normalized intensity) was -1.16.
As for TTCACTGTTTGCTTTTCTTATTTACCGAAA, the figure is 0.917.
As for AATTTGAACCAAGATCTGTGAAAGAAAAGT, the figure is 0.169.
With TCACTCAGCAATAAATACCAAAGCCATGGC the figure was -1.12.
On to ATAGCCCAAGTTCAAAGGTTATCTGCTGGC, for which the binding signal (log2 normalized intensity) came out at 4.05.
As for GGAAATACCGACAACGCCAAGGACCGCCAA, the figure is -1.13; as for AGCCTTATCTTCCAGCCCTGTCTCTCAGGT, 0.427; as for GGTCATCTGAGGGAAAAGATAAGATTATCT, -1.04.
As for CTAAGCGATAAGGAGGAAGGACACTTAGAG, the figure is -1.09; as for GGTCACACAGCTAAGAGCCGCAGAGCTAAT, -0.956; as for TCCTCCTATGTCAATAGAGCATGAGAACTT, -0.0457.
For the sequence CCGCGCCCCGCCCCCAGTGCACCTTAATAA, the binding signal (log2 normalized intensity) came out at 5.22.
As for TACAGAGCTGAAGTTTGCAAACAGTAAAGA, the binding signal (log2 normalized intensity) was -0.168.
For TGGAAGGCTGTATGTACACTTGCCCTCTCA, the binding signal (log2 normalized intensity) came to 3.19.
As for TTTGAAGTCTGGTGGCAAGTACCCTTTATC, the figure is 2.16; as for TGTCTCTTCTTGTACCTCTGGTGATTACCA, 1.21.
Take GGGCTGGTTGGCACGCTTAGGGAACAAAGG: the binding signal (log2 normalized intensity) is 1.25.
Regarding ATACACACACACCCCTCCACTGGACAGCAG, the binding signal (log2 normalized intensity) came to 2.12.
ATGAAGCTAAAAGAAGTCCAAGGACTTATC: the binding signal (log2 normalized intensity) was -1.02.
For the sequence AGTCTGGAAGTTGAATTCCTTCTTCTTCTG, the binding signal (log2 normalized intensity) stood at 0.0469.
As for ATTCAACAGAGCTATTTTAGGGTAAAGATC, the figure is 0.786; as for ATTTATTACAGAGAGGGGGAGTGAAGGTTA, -0.169.
Consider TAGCCTATCAGAAGAATCTGTATCAGCCTG, for which the binding signal (log2 normalized intensity) is -1.09.
As for AGATAAGGCTAGTAACACTCACATTCCACG, the figure is -1.05.
As for CACCAGCTTCTTCTCTTTGACAAAAAATGA, the binding signal (log2 normalized intensity) amounted to 1.1.
With CCTGGTAGTGCGACAAGAATGTGGTTCTTT, the binding signal (log2 normalized intensity) amounted to 1.43.
With CCAGCCTGTCGGAATTTGCCCTGTGGTCTA the figure was 2.78; with TCCCCCTGCCCTTCGTCCTGAGCAGTCCCT, 2.4.
As to CTAGGGGGCACCTCTGAAAGCACTTGTAGG, the binding signal (log2 normalized intensity) is -0.691.
As for GGAATTCTTCACCAAATCATTTCACTTCCT, the figure is -1.26; as for GCCTTCCCCGCCCGCAGCCCAGTCTTGGCC, 3.99.
With TAAAAATTAGCTGAACATGGTGACACACAC the figure was -1.14; with CCACCCTGGCAGAGGAAAAAGTCCCTGGTC, -1.03; with GACCTTTGACCTTTATACCTGTACGTTACT, 7.39.
Turning to TACTGGGGATGGACTTTGGCCCTCAGCCCA, the binding signal (log2 normalized intensity) was 8.56.
With CCTTATCAGAAGGAAAGTCTCCCTCCCTTT the figure was 1.9; with GATCATCTTCACCTGCCCTGAGTCCAGCCT, 1.39.
With TTATCTGGGCCAGGTATTTGGACTTTTTGT the figure was 4.22; with GATCTGGGTGTGCCATTCTTCCAGTTGTGT, 1.84; with GTTGAGGAGTTTGTACTTTATCCTACAAGG, 2.25.
As for AAAATATGGACTTTGGAATTAAGAAAAGCT, the figure is 5.25; as for GACCTTGGAATGTCAAGATTGAGACATTCA, -0.182.
With TGGATCTTGAAGCAGAAAACCACTGTGCTC, the binding signal (log2 normalized intensity) was -1.07.
As for AGGAGGGACTGAACAGATATTGGCCAAAGG, the figure is 0.0556; as for GAAAAGGCCTGACCTTTGCCCTCTGGCCCT, 9.1.
As for CAAGGGCTTACAACTCTAAGGGGGAAAGTC, the figure is -1.09; as for ACTCTTATCAGACAGGATATTTTGAGGGCT, -1.01.
Consider CACCTGCCCTCAGGGAGCTCCAGCACTGGG, for which the binding signal (log2 normalized intensity) was -0.977.
As for CGTCGCTGAGTGGAGGCCCAGTAAGTCCCA, the figure is 0.00706; as for ATATTCACTATCTGATCCTTTACAGAGATA, -0.305; as for TACACAGAAGTTAATTTCAAAACAAATAAA, -1.11.
Take AAAGATAATATTTTTGACTTACCATTTGCT: the binding signal (log2 normalized intensity) was -1.09.
With GGTGGACCAAAACACTTGTGTCAACCGTGT the figure was 0.709; with TGCAACCAGTTGGTGGGTCAAGGTGCAAAG, 3; with CTCCCCACAAATTCTGTACTTCAACCAGGT, 1.85.
Regarding CCTCAATGCTATCTCCCAGTTCTTTTGACC, the binding signal (log2 normalized intensity) was 2.52.
Take GGGGGCGACCTGCTGGACGGGAGGAAAACT: the binding signal (log2 normalized intensity) is -1.17.
With CACTGCTCACAGGTTGTACTATGACCCAAA the figure was 5.42.
As for TAATGAGGCCACTCCTGATAGCTAGAGAGT, the figure is -1.15.
With GTCAGAGATTTCTTTACCATACCAGATGAA the figure was 1.12; with CCTTATGACGGACAAAGGGCTCTCTCACCA, -0.701.
On to ATAGAGATTGCTTAATGCAAACTCCAGCAT, for which the binding signal (log2 normalized intensity) was -1.11.
As for TTATGTTGGCACTTCTCTCGGCCTTAAGAG, the figure is -1.08; as for TCACCAATGGTAACTGAAAGTCATGCTGAA, -0.962; as for AGTGGCTTCATTCCCGAGTGCCTTTAGAGG, 1.01.
With GTTTAGGAGGAAATAGAGAGCAGACAGGGG the figure was -1.22; with CTGAGCTGGCAGGGAGGAGGGATCAAGCAG, -1.22; with ATGACAGTACCTCTCAAAAATCTCACTCAC, -1.02.
Regarding AGCATGCTTCCCAAATGGAGTGCCCTAGGA, the binding signal (log2 normalized intensity) worked out at 0.716.
Turning to TAATTGAGTAACCAGCTGCCTCTTGTGTTC, the binding signal (log2 normalized intensity) turned out to be 1.59.
With GCTCGGCTCGCTCTCCCTGCTGGCCTGGGA the figure was -1.15.

The record behind these values is paper PMC10726135.
